Data as given in patent US20260139032A1 (35PHARMA, published 2026).

T1: GDF-8 (UniProt O14793 267-375)
T1 sequence (looked up): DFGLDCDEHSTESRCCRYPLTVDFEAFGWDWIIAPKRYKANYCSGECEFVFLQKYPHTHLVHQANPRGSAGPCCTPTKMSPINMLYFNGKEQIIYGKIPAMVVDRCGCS

T2: activin B (UniProt P09529 293-407)
T2 sequence (looked up): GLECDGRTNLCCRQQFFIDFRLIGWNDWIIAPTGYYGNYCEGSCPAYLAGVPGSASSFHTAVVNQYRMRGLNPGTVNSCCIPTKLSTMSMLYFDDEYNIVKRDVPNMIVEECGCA

T3: recombinant human activin A (human, UniProt P08476 311-426)
T3 sequence (looked up): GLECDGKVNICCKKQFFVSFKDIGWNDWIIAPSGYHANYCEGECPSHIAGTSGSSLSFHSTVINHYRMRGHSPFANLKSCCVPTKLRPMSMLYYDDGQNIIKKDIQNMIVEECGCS

T4: GDF-11 (UniProt O95390 299-407)
T4 sequence (looked up): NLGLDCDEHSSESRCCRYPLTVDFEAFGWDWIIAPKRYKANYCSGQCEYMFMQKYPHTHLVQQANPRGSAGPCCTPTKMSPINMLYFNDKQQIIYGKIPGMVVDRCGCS

T5: BMP-10 (UniProt O95393 317-424)
T5 sequence (looked up): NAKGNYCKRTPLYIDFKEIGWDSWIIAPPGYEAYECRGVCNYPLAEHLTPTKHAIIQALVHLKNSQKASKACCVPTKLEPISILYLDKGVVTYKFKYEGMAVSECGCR

T6: BMP-9 (UniProt Q9UK05 320-429)
T6 sequence (looked up): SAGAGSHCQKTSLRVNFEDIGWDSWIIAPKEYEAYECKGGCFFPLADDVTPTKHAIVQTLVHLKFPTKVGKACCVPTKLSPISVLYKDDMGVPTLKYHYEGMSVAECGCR

B1: wild type human ActRIIB-ECD-Fc (P75) (Fc fusion)
chain: ETRECIYYNANWELERTNQSGLERCEGEQDKRLHCYASWRNSSGTIELVKKGCWLDDFNCYDRQECVATEENPQVYFCCCEGNFCNERFTHLPEAGGPEVTYEPPPTG[human IgG1 Fc and a few adjoining residues omitted]
B2: P1198 (hActRIIB L33Q F58E, 3 aa GGG linker, IgG1-DL Fc) (Fc fusion)
chain: ETRECIYYNANWELERTNQSGLERCEGEQDKRQHCYASWRNSSGTIELVKKGCWLDDENCYDRQECVATEENPQVYFCCCEGNFCNERFTHLPEAGGPEVTYEPPPTG[human IgG1 Fc and a few adjoining residues omitted]
B3: P1193 (hActRIIB L33Y F58E, 10 aa linker, IgG1-DL Fc) (Fc fusion)
chain: ETRECIYYNANWELERTNQSGLERCEGEQDKRYHCYASWRNSSGTIELVKKGCWLDDENCYDRQECVATEENPQVYFCCCEGNFCNERFTHLPEAGGPEVTYEPPPTGGGGSGGG[human IgG1 Fc and a few adjoining residues omitted]
B4: P1194 (hActRIIB L33Y F58E, 14 aa linker, IgG1-DL Fc) (Fc fusion)
chain: ETRECIYYNANWELERTNQSGLERCEGEQDKRYHCYASWRNSSGTIELVKKGCWLDDENCYDRQECVATEENPQVYFCCCEGNFCNERFTHLPEAGGPEVTYEPPPTGGGGSGGGGSGG[human IgG1 Fc and a few adjoining residues omitted]
B5: P1197 (hActRIIB L33Q F58Q, 14 aa linker, IgG1-DL Fc) (Fc fusion)
chain: ETRECIYYNANWELERTNQSGLERCEGEQDKRQHCYASWRNSSGTIELVKKGCWLDDQNCYDRQECVATEENPQVYFCCCEGNFCNERFTHLPEAGGPEVTYEPPPTGGGGSGGGGSGG[human IgG1 Fc and a few adjoining residues omitted]
B6: P1200 (hActRIIB L33Q F58E, 14 aa linker, IgG1-DL Fc) (Fc fusion)
chain: ETRECIYYNANWELERTNQSGLERCEGEQDKRQHCYASWRNSSGTIELVKKGCWLDDENCYDRQECVATEENPQVYFCCCEGNFCNERFTHLPEAGGPEVTYEPPPTGGGGSGGGGSGG[human IgG1 Fc and a few adjoining residues omitted]
B7: P1191 (hActRIIB L33Y F58Q, 14 aa linker, IgG1-DL Fc) (Fc fusion)
chain: ETRECIYYNANWELERTNQSGLERCEGEQDKRYHCYASWRNSSGTIELVKKGCWLDDQNCYDRQECVATEENPQVYFCCCEGNFCNERFTHLPEAGGPEVTYEPPPTGGGGSGGGGSGG[human IgG1 Fc and a few adjoining residues omitted]

How the values were obtained:
Assay in all cases: cell-based or functional assay
[1] = target: T1, GDF-8
[2] = target: T2, activin B
[3] = target: T3, recombinant human activin A
[4] = target: T4, GDF-11
[5] = target: T5, BMP-10
[6] = target: T6, BMP-9
[7] = target: T2, activin B; remark: listed apart in the source
[8] = target: T6, BMP-9; remark: listed apart in the source

Row | Binder | GDF-8 IC50 (nM), TGFβ-reporter HEK293 cell-based assay [1] [nM] | Activin B IC50 (nM), TGFβ-reporter HEK293 cell-based assay [2] [nM] | Activin A IC50 (nM), TGFβ-reporter HEK293 cell-based assay [3] [nM] | GDF-11 IC50 (nM), TGFβ-reporter HEK293 cell-based assay [4] [nM] | BMP-10 IC50 (nM), BMP-reporter HepG2 cell-based assay [5] [nM] | BMP-9 IC50 (nM), BMP-reporter HepG2 cell-based assay [6] [nM] | fold reduction of potency on activin B relative to P75, TGFβ-reporter HEK293 assay [7] [fold] | fold decrease of inhibition potency on BMP-9, BMP-reporter HepG2 assay [8] [fold]
1 | B1 | 0.67 | 1.4 | 2.3 | 0.75 | 2 | 3 |  | 
2 | B2 | 0.37 | 106 | 1.1 | 0.33 | 7.7 |  | > 50 | 
3 | B3 | 0.5 | 352 | 0.65 | 0.38 | 9.4 |  | > 50 | 
4 | B4 | 0.39 | 25 | 0.42 | 0.37 | 3.6 |  | < 20 | > 100
5 | B5 | 0.39 | 1.2 | 0.49 | 0.38 | 1.2 | 424 |  | > 100
6 | B6 | 0.26 | 16 | 0.41 | 0.33 | 2 | > 1000 | < 20 | > 100
7 | B7 | 0.64 | 4.3 | 0.74 | 0.52 | 1.5 | 627 | < 20 | > 100
